Reference: PMC4336329 (PLoS ONE, 2015)
The campaign covered roughly 310,000 compounds. About 14,000 (4.5%) showed an effect of 50% or more. The effect is printed as a negative number. This is one part of the list.

biological target: human ether-à-go-go-related gene (hERG) potassium channel (human, UniProt Q12809); experiment: primary screen, population patch clamp on CHO cells stably expressing hERG
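Note: peak tail current of the secondary pulse compared with the same well before compound.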

human ether-à-go-go-related gene (hERG) potassium channel, sequence (Q12809 whole entry, looked up): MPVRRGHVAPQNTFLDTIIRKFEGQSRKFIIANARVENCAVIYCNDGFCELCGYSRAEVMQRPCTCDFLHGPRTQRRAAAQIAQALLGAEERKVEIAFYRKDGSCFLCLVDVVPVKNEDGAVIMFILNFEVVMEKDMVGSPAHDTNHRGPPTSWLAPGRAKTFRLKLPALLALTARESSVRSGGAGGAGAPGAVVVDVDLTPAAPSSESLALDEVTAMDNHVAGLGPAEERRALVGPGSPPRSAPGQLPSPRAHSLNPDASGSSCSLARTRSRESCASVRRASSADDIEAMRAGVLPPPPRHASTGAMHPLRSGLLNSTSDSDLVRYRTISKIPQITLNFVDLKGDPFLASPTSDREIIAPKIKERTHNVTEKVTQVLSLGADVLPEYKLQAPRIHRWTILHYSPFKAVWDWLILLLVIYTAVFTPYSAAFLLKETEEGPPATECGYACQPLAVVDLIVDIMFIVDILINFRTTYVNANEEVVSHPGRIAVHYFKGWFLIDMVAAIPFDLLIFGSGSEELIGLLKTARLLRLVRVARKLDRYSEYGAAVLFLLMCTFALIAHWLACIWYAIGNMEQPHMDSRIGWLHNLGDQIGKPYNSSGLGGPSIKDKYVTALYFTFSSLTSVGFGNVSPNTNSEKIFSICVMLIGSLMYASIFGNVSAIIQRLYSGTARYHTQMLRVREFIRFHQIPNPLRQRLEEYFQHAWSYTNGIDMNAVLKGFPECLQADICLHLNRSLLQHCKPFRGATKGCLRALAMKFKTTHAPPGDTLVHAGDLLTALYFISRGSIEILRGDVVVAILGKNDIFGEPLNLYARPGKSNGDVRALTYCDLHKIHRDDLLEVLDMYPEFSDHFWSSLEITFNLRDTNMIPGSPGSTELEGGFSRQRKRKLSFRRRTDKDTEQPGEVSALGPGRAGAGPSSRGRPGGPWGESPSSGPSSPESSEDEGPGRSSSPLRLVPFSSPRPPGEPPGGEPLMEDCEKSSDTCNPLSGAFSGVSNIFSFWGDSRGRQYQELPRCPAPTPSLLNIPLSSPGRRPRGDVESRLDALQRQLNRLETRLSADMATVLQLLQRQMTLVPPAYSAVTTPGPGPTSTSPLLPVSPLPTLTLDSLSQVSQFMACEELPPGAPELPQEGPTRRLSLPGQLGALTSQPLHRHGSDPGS

Compared with `CCn1nc(NC(=O)C(C)C)c2cc3cccc(C)c3nc21`, `CCc1ccccc1NC(=O)CCc1c(C)nc(SC)nc1C` is lower in “hERG current change (%, negative = inhibition) at 10uM” value: 22.9% for the first, 10.8% for the second.

Going from `O=C(CCc1ccccc1)N=C1SC2CS(=O)(=O)CC2N1c1ccc(F)cc1` (stereo not drawn) to `O=C(CCc1ccccc1)NNC(=O)c1cc(Cl)ccc1O`, the “hERG current change (%, negative = inhibition) at 10uM” value rises from 11.6% to 15.1%.

Compared with `O=C1CCCCN1CCc1c[nH]c2ccccc12`, `CC(C)CN1CCC(=O)N(CCSc2ccccc2)CC1` is lower in “hERG current change (%, negative = inhibition) at 10uM” value: 11.8% for the first, -15.4% for the second.

Compared with `CC(N=C(NC#N)Nc1ccncc1)C(C)(C)C` (stereo not drawn), `COc1cccc(C(=O)Nc2cnn(C(C)C)c2)c1` is higher in “hERG current change (%, negative = inhibition) at 10uM” value: -6.9% for the first, 9.94% for the second.

Compared with `COc1ccccc1NC(=O)CSc1nnc(NC(=O)C2CCC2)s1`, `COc1ccc(OC)c(NC(=O)Nc2nnc(N3CCC(C)CC3)s2)c1` is lower in “hERG current change (%, negative = inhibition) at 10uM” value: 12.9% for the first, 5.07% for the second.

Compared with `Cc1ccc(OCC(=O)NCC(=O)Nc2ccc(F)cc2)c([N+](=O)[O-])n1`, `Cc1ccc2[nH]c(=O)c(CN(CCCN(C)C)C(=O)Nc3ccc(F)cc3)cc2c1` is lower in “hERG current change (%, negative = inhibition) at 10uM” value: -40.3% for the first, -70.7% for the second.

First: O=C(NCc1ccccc1Cl)C(=O)c1cn(CC(=O)N2CCOCC2)c2ccccc12
Second: CC1CCCCC1NC(=O)CN1CCN(Cc2ccccc2Cl)C1=O (stereo not drawn)
The “hERG current change (%, negative = inhibition) at 10uM” value of the first is higher: 15.2% for the first, 4.48% for the second.

First: O=C(CCCCCl)Nc1c2c(nc3ccccc13)CCC2
Second: CC(C)NC(=O)c1onc(CSc2cccc3ccccc23)c1C(=O)O
The “hERG current change (%, negative = inhibition) at 10uM” value of the first is lower: -23.6% for the first, 34.5% for the second.

Going from `CC(=O)Nc1ccc(NCc2ccc(C)s2)cc1` to `CCC(=O)Nc1cccc(NC(=O)c2ccc(C)cc2Cl)c1`, the “hERG current change (%, negative = inhibition) at 10uM” value rises from -3.79% to 34.5%.

Going from `CC(NC(=O)CN1CCCC1)c1ccccc1` (stereo not drawn) to `O=C(Cn1cccc1C(=O)c1ccccc1)NCCCc1ccccc1`, the “hERG current change (%, negative = inhibition) at 10uM” value falls from 21% to -8.33%.

Compared with `C=CCN1C(=O)C2(OCCO2)c2cc(C)ccc21`, `C/C(N)=C(/C#N)C(=O)CSc1nc2ccc(C)cc2[nH]1` is lower in “hERG current change (%, negative = inhibition) at 10uM” value: 18.1% for the first, 10.1% for the second.

Compared with `Nc1ccc2c(c1)C(=O)Cc1ccccc1S2`, `O=c1c2ccccc2nnn1Cc1ccc(Br)cc1` is lower in “hERG current change (%, negative = inhibition) at 10uM” value: 9.05% for the first, 8.66% for the second.

Going from `CCc1c(O)nc(SCC(=O)NCc2ccco2)[nH]c1=O` to `COc1ccc2[nH]c(C(=O)O)c(CCC(=O)O)c2c1`, the “hERG current change (%, negative = inhibition) at 10uM” value rises from -2.46% to 18.9%.

Compared with `N#C/C(=C(/O)CCl)c1nnc2n1CCCCC2`, `COCCn1c(SCC(=O)N2CCCCC2)nc2c(c1=O)SC(C)C2` (stereo not drawn) is lower in “hERG current change (%, negative = inhibition) at 10uM” value: 11.9% for the first, 9.29% for the second.

First: COc1cccc(CNc2nn[nH]n2)c1OC
Second: COc1cccc(/C=N/Nc2nnc(C)n2N)c1OCc1ccccc1Cl.Cl
The “hERG current change (%, negative = inhibition) at 10uM” value of the first is higher: 13.3% for the first, 6.41% for the second.

First: CC(C)c1ccc(-c2nc3c([nH]2)c(=O)n(C)c(=O)n3C)cc1
Second: Cc1[nH]nc2nc3c(c(OC(=O)c4ccccc4)c12)c(=O)n(C)c(=O)n3C
The “hERG current change (%, negative = inhibition) at 10uM” value of the first is higher: 11.2% for the first, 6.45% for the second.

Compared with `C=CCN(CC=C)C(=O)c1ccncc1`, `CCOc1ccccc1NC(=O)/C(C#N)=C/c1cccnc1` is higher in “hERG current change (%, negative = inhibition) at 10uM” value: 1.91% for the first, 6.37% for the second.

Compared with `CC1(C(=O)NCc2ccc(F)cc2)Oc2ccccc2NC1=O` (stereo not drawn), `CC(=O)N1CC(=O)Nc2ccc(Br)cc2C1c1ccc(F)cc1` (stereo not drawn) is lower in “hERG current change (%, negative = inhibition) at 10uM” value: -0.471% for the first, -5.14% for the second.

Going from `CC(C)Cc1nc2ccccc2[nH]1` to `CCCCn1c(N)c(N(CCOC)C(=O)COC(=O)CCOc2ccccc2)c(=O)[nH]c1=O`, the “hERG current change (%, negative = inhibition) at 10uM” value falls from 9.74% to 8.12%.

Compared with `N#Cc1cc(-c2ccc(Cl)cc2)cnc1Sc1ccccc1`, `Clc1ccc(C2[C@H]3CN(Cc4ccc(-c5ccccc5)cc4)[C@H](c4ccccc4)C34CC2(c2ccccc2)C4)cn1` (stereo partly drawn) is lower in “hERG current change (%, negative = inhibition) at 10uM” value: 5.56% for the first, 0.196% for the second.

First: Cc1cc(C)c(C(=O)COC(=O)[C@H](C)Nc2ccc(C(F)(F)F)cc2[N+](=O)[O-])c(C)c1
Second: Cc1ccc(-n2c(CSc3nc(C)cc(C)n3)nnc2SCC(=O)Nc2nccs2)cc1
The “hERG current change (%, negative = inhibition) at 10uM” value of the first is higher: 13.1% for the first, 9.01% for the second.

Going from `O=C(O)CC1=C(Nc2ccccc2)C(=O)N(c2ccccc2)C1c1ccc(Br)cc1` (stereo not drawn) to `COc1ccc(OCCN2C(=O)c3cccc(N)c3C2=O)cc1`, the “hERG current change (%, negative = inhibition) at 10uM” value falls from 25.9% to 11.8%.

In the case of `Cc1ccc(S(=O)(=O)Nc2ccc(Cl)cc2)cc1NC(=O)c1cc2c(s1)CCCC2`, the “hERG current change (%, negative = inhibition) at 10uM” value is reported as -6.16%.
